# Test results from the supplement of paper PMC8728848.
# The other results are listed elsewhere or left out.
# Tests used:
# Assay in all cases: glycan array binding signal (z-score within array); higher = stronger binding
# Conditions in all cases: glycan notation: IUPAC condensed, linker removed
# Gal(a1-6)Glc = target: Gal(a1-6)Glc
# How it was run: (§1)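 Glycan array data came from 3228 arrays in the Consortium for Functional Glycomics database, and only arrays with an available protein sequence were kept. Glycan names were put into IUPAC-condensed notation, and columns mapping to the same glycan were averaged. The binding signal is a within-array Z-score, averaged across arrays of one protein sequence run at different concentrations or buffers and across linkers. A negative Z-score can be read as non-binding.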
# Gal(b1-2)Gal = target: Gal(b1-2)Gal
# How it was run: as §1
# Gal(b1-3)Gal = target: Gal(b1-3)Gal
# How it was run: as §1
# Gal(b1-3)Gal(b1-4)GlcNAc = target: Gal(b1-3)Gal(b1-4)GlcNAc
# How it was run: as §1
# Gal(b1-3)GalNAc = target: Gal(b1-3)GalNAc
# How it was run: as §1
# [1] = target: Gal(b1-3)GalNAc(a1-3)[Fuc(a1-2)]Gal(b1-4)Glc
# How it was run: as §1
# [2] = target: Gal(b1-3)GalNAc(a1-3)[Fuc(a1-2)]Gal(b1-4)GlcNAc
# How it was run: as §1
# Gal(b1-3)GalNAc(b1-3)Gal = target: Gal(b1-3)GalNAc(b1-3)Gal
# How it was run: as §1
# [3] = target: Gal(b1-3)GalNAc(b1-3)Gal(a1-4)Gal(b1-4)Glc
# How it was run: as §1
# [4] = target: Gal(b1-3)GalNAc(b1-4)Gal(b1-4)Glc
# How it was run: as §1
# [5] = target: Gal(b1-3)GalNAc(b1-4)[Neu5Ac(a2-3)]Gal(b1-4)Glc
# How it was run: as §1
# Gal(b1-3)GlcNAc = target: Gal(b1-3)GlcNAc
# How it was run: as §1
# [6] = target: Gal(b1-3)GlcNAc(a1-3)Gal(b1-4)GlcNAc
# How it was run: as §1
# [7] = target: Gal(b1-3)GlcNAc(a1-6)Gal(b1-4)GlcNAc
# How it was run: as §1
# Gal(b1-3)GlcNAc(b1-2)Man = target: Gal(b1-3)GlcNAc(b1-2)Man
# How it was run: as §1
# [8] = target: Gal(b1-3)GlcNAc(b1-2)Man(a1-3)[Gal(b1-3)GlcNAc(b1-2)Man(a1-6)]Man(b1-4)GlcNAc(b1-4)GlcNAc
# How it was run: as §1
# [9] = target: Gal(b1-3)GlcNAc(b1-2)Man(a1-3)[Gal(b1-3)GlcNAc(b1-2)Man(a1-6)]Man(b1-4)GlcNAc(b1-4)[Fuc(a1-6)]GlcNAc
# How it was run: as §1
# [10] = target: Gal(b1-3)GlcNAc(b1-2)Man(a1-3)[GlcNAc(b1-4)][Gal(b1-3)GlcNAc(b1-2)Man(a1-6)]Man(b1-4)GlcNAc(b1-4)GlcNAc
# How it was run: as §1
# [11] = target: Gal(b1-3)GlcNAc(b1-2)[Gal(b1-3)GlcNAc(b1-6)]Man(a1-6)[Gal(b1-3)GlcNAc(b1-2)Man(a1-3)]Man(b1-4)GlcNAc(b1-4)GlcNAc
# How it was run: as §1
# [12] = target: Gal(b1-3)GlcNAc(b1-3)Gal(b1-3)GlcNAc
# How it was run: as §1
# [13] = target: Gal(b1-3)GlcNAc(b1-3)Gal(b1-4)Glc
# How it was run: as §1
# [14] = target: Gal(b1-3)GlcNAc(b1-3)Gal(b1-4)GlcNAc
# How it was run: as §1
# [15] = target: Gal(b1-3)GlcNAc(b1-3)Gal(b1-4)GlcNAc(b1-2)Man(a1-3)[Gal(b1-3)GlcNAc(b1-3)Gal(b1-4)GlcNAc(b1-2)Man(a1-6)]Man(b1-4)GlcNAc(b1-4)GlcNAc
# How it was run: as §1
# [16] = target: Gal(b1-3)GlcNAc(b1-3)Gal(b1-4)GlcNAc(b1-2)[Gal(b1-3)GlcNAc(b1-3)Gal(b1-4)GlcNAc(b1-6)]Man(a1-6)[Gal(b1-3)GlcNAc(b1-3)Gal(b1-4)GlcNAc(b1-2)Man(a1-3)]Man(b1-4)GlcNAc(b1-4)[Fuc(a1-6)]GlcNAc
# How it was run: as §1
# [17] = target: Gal(b1-3)GlcNAc(b1-3)Gal(b1-4)GlcNAc(b1-3)Gal(b1-4)GlcNAc(b1-2)[Gal(b1-3)GlcNAc(b1-3)Gal(b1-4)GlcNAc(b1-3)Gal(b1-4)GlcNAc(b1-6)]Man(a1-6)[Gal(b1-3)GlcNAc(b1-3)Gal(b1-4)GlcNAc(b1-3)Gal(b1-4)GlcNAc(b1-2)Man(a1-3)]Man(b1-4)GlcNAc(b1-4)[Fuc(a1-6)]GlcNAc
# How it was run: as §1
# [18] = target: Gal(b1-3)GlcNAc(b1-3)Gal(b1-4)GlcNAc(b1-6)[Gal(b1-3)GlcNAc(b1-3)]Gal(b1-4)Glc
# How it was run: as §1
# [19] = target: Gal(b1-3)GlcNAc(b1-3)Gal(b1-4)[Fuc(a1-3)]GlcNAc
# How it was run: as §1
# [20] = target: Gal(b1-3)GlcNAc(b1-3)Gal(b1-4)[Fuc(a1-3)]GlcNAc(b1-6)[Gal(b1-3)GlcNAc(b1-3)]Gal(b1-4)Glc
# How it was run: as §1
# [21] = target: Gal(b1-3)GlcNAc(b1-3)GalNAc
# How it was run: as §1
# [22] = target: Gal(b1-3)GlcNAc(b1-6)Gal(b1-4)GlcNAc
# How it was run: as §1
# [23] = target: Gal(b1-3)GlcNAc(b1-6)GalNAc
# How it was run: as §1
# [24] = target: Gal(b1-3)GlcNAc(b1-6)[Gal(b1-3)]GalNAc
# How it was run: as §1
# Gal(b1-3)GlcNAc6S = target: Gal(b1-3)GlcNAc6S
# How it was run: as §1
# [25] = target: Gal(b1-3)[Fuc(a1-4)]GlcNAc
# How it was run: as §1
# [26] = target: Gal(b1-3)[Fuc(a1-4)]GlcNAc(b1-2)Man
# How it was run: as §1
# [27] = target: Gal(b1-3)[Fuc(a1-4)]GlcNAc(b1-2)Man(a1-3)[Gal(b1-3)[Fuc(a1-4)]GlcNAc(b1-2)Man(a1-6)]Man(b1-4)GlcNAc(b1-4)[Fuc(a1-6)]GlcNAc
# How it was run: as §1
# [28] = target: Gal(b1-3)[Fuc(a1-4)]GlcNAc(b1-3)Gal(b1-3)[Fuc(a1-4)]GlcNAc
# How it was run: as §1
# [29] = target: Gal(b1-3)[Fuc(a1-4)]GlcNAc(b1-3)Gal(b1-4)[Fuc(a1-3)]GlcNAc
# How it was run: as §1
# [30] = target: Gal(b1-3)[Fuc(a1-4)]GlcNAc(b1-6)GalNAc
# How it was run: as §1
# [31] = target: Gal(b1-3)[GlcNAc(b1-6)]GalNAc
# How it was run: as §1
# [32] = target: Gal(b1-3)[Neu5Ac(a2-6)]GalNAc
# How it was run: as §1
# [33] = target: Gal(b1-3)[Neu5Ac(a2-6)]GlcNAc(b1-4)Gal(b1-4)Glc
# How it was run: as §1
# [34] = target: Gal(b1-3)[Neu5Ac(b2-6)]GalNAc
# How it was run: as §1
# Gal(b1-4)Gal = target: Gal(b1-4)Gal
# How it was run: as §1
# [35] = target: Gal(b1-4)GalNAc(a1-3)[Fuc(a1-2)]Gal(b1-4)GlcNAc
# How it was run: as §1
binder,measurement,setting,value
APVPVTKLVCDGDTYKCTAYLDFGDGRWVAQWDTNVFHTG [PhoSpL (Pholiota squarrosa)],glycan array binding signal (z-score),Gal(a1-6)Glc,-0.091
same,glycan array binding signal (z-score),Gal(b1-2)Gal,-0.507
same,glycan array binding signal (z-score),Gal(b1-3)Gal,0.442
same,glycan array binding signal (z-score),Gal(b1-3)Gal(b1-4)GlcNAc,-0.413
same,glycan array binding signal (z-score),Gal(b1-3)GalNAc,-0.201
same,glycan array binding signal (z-score),[1],-0.282
same,glycan array binding signal (z-score),[2],-0.143
same,glycan array binding signal (z-score),Gal(b1-3)GalNAc(b1-3)Gal,-0.201
same,glycan array binding signal (z-score),[3],0.377
same,glycan array binding signal (z-score),[4],0.095
same,glycan array binding signal (z-score),[5],-0.68
same,glycan array binding signal (z-score),Gal(b1-3)GlcNAc,-0.41
same,glycan array binding signal (z-score),[6],-0.14
same,glycan array binding signal (z-score),[7],-0.121
same,glycan array binding signal (z-score),Gal(b1-3)GlcNAc(b1-2)Man,0.744
same,glycan array binding signal (z-score),[8],0.027
same,glycan array binding signal (z-score),[9],6.05
same,glycan array binding signal (z-score),[10],-0.757
same,glycan array binding signal (z-score),[11],-0.346
same,glycan array binding signal (z-score),[12],-0.265
same,glycan array binding signal (z-score),[13],-1.16
same,glycan array binding signal (z-score),[14],0.175
same,glycan array binding signal (z-score),[15],-0.402
same,glycan array binding signal (z-score),[16],0.083
same,glycan array binding signal (z-score),[17],0.325
same,glycan array binding signal (z-score),[18],-0.292
same,glycan array binding signal (z-score),[19],0.037
same,glycan array binding signal (z-score),[20],0.054
same,glycan array binding signal (z-score),[21],-0.812
same,glycan array binding signal (z-score),[22],0.218
same,glycan array binding signal (z-score),[23],-0.381
same,glycan array binding signal (z-score),[24],-0.681
same,glycan array binding signal (z-score),Gal(b1-3)GlcNAc6S,0.449
same,glycan array binding signal (z-score),[25],-0.078
same,glycan array binding signal (z-score),[26],-0.075
same,glycan array binding signal (z-score),[27],-0.05
same,glycan array binding signal (z-score),[28],-0.376
same,glycan array binding signal (z-score),[29],-0.256
same,glycan array binding signal (z-score),[30],-0.334
same,glycan array binding signal (z-score),[31],-0.226
same,glycan array binding signal (z-score),[32],0.006
same,glycan array binding signal (z-score),[33],-0.173
same,glycan array binding signal (z-score),[34],-0.431
same,glycan array binding signal (z-score),Gal(b1-4)Gal,-0.352
same,glycan array binding signal (z-score),[35],-0.219
